According to ChEMBL document CHEMBL1157539, “Thousands of chemical starting points for antimalarial lead identification” (Nature, 2010):
Whole data set: some 13,000 compounds, median “IFI” near 4, cut for the highest 2% near 17. The list shows a part of the results.

Test: GSK_TCMDC: Inhibition Frequency Index (IFI). The number of non-kinase HTS assays where a compound showed > 50 % inhibition, expressed as a percentage of the number of such assays in which the compound was tested (-0 is zero)
Format: functional

Row | Compound | IFI
1 | Cc1cc(CN2CCC(Nc3ncc(-c4ccsc4)c4nc(C(F)(F)F)ccc34)CC2)no1 | 7.46%
2 | CC(C)CCCC(C)(C)NC[C@@H](O)[C@H](Cc1ccccc1)NC(=O)c1cccc(CCC2CC2)c1 | 22.4%
3 | O=C(Nc1ccnc(-c2cccnc2)n1)c1cc(C(F)(F)F)cc(C(F)(F)F)c1 | 0%
4 | CCN(CC)CCN(Cc1ccc(-c2ccc(C(F)(F)F)cc2)cc1)C(=O)Cn1c(CCc2c(F)cccc2F)nc(=O)c2ccccc21 | 11.7%
5 | CCC[C@@H]([C@@H](Cc1ccc(C)s1)C(=O)N[C@@H](CNC(C)=O)C(=O)Nc1nccs1)N(O)C=O | 1.59%
6 | COc1ccc(C2C(C(=O)Nc3ccccc3)=C(C)Nc3c(C(=O)Nc4ccccc4)cnn32)cc1 (centres undefined) | -0%
7 | Cc1cccc2nc(-c3cccc(-c4ccc(NC(=O)CN5CCN(C)CC5)cc4)c3)[nH]c12 | 3.6%
8 | COc1cc(C2=NN(S(=O)(=O)c3c(C)cc(C)cc3C)CCCC2)ccc1Cl | 2.22%
9 | COc1ccc(C(=O)C2CC2CN(C)CC(O)c2cc(C)c(OC)cc2C)cc1 (centres undefined) | 0.88%
10 | Ic1cc(CNC2CCCCC2)ccc1OCc1cccc(COc2ccc(CNC3CCCCC3)cc2I)c1 | 10.1%
11 | CC(=O)c1ccc2nc[nH]c(=O)c2c1 | 26.1%
12 | CCOc1ccc(OCCCON2C(=N)N=C(N)NC2(C)C)cc1 | 2.17%
13 | O=C(/C=C/c1ccc(Cl)c(Cl)c1)NCCCCCN1CCC(c2c[nH]c3ccc(O)cc23)CC1 | 8.57%
14 | COc1cccc(-c2cc(C(F)(F)F)n3ncc(C(=O)Nc4cc(Cl)ccc4O)c3n2)c1 | 0%
15 | Cc1ccc(F)cc1-c1cc(N2CCCN(C(=O)c3ccc(Br)o3)CC2)ncn1 | 0%
16 | CCn1c(-c2nonc2N)nc2c(-c3cccc(NC(=O)Nc4cccc(C(F)(F)F)c4)c3)ncc(OCCCN)c21 | 14.6%
17 | COc1ccc(CNCc2ccccc2)cc1-c1ccc(S(=O)(=O)NCCN2CCCC2)s1 | 11.1%
18 | OC(CN1CCN(Cc2ccccc2)CC1)Cn1c(-c2ccccc2)c(-c2ccccc2)c2ccccc21 (centres undefined) | 2.13%
19 | CCCc1cc(N2CCC(N3CCCC3)CC2)nc(Nc2ccc(Cl)cc2)n1 | 2.6%
20 | NC1CCN(CCc2ccc(NS(=O)(=O)c3ccc(-c4ccccc4)cc3)cc2)CC1 | 12.5%
21 | COc1cccc(C(=O)NCCc2cccc(Cl)c2)c1Oc1ccccc1 | -0%
22 | Cc1cccc2nc(-c3ccc(-c4ccc(NC(=O)Nc5ccsc5)cc4)s3)[nH]c12 | 6.06%
23 | COc1ccc(NC(=O)/C=C/c2ccc(-c3ccccc3)cc2)cc1N1CCN(C)CC1 | 2.21%

Row | Compound | IFI
24 | Cc1cc(C2CCN(CCCCNC(=O)c3ccc(-c4ccc(C(F)(F)F)cc4)cc3)CC2)c(C)cc1OCC#N | 4.59%
25 | NCCCN(Cc1ccc(Cl)c(Cl)c1)C(=O)Nc1ccc(Cl)c(Cl)c1 | 17.7%
26 | COc1ccc(CNC2Cc3ccccc3C2)cc1-c1ccc(S(=O)(=O)NCCN2CCCC2)c(F)c1 | 10.2%
27 | Clc1nc2ccccn2c1C=Cc1ccc2ccccc2n1 | 1.41%
28 | CCc1ccc(CN2CCC(CNC(=O)c3cc(-c4cccc(Cl)c4)cs3)C2)cc1 (centres undefined) | 8.16%
29 | N=C(NCCCCCCCCNC(=N)Nc1ccc(Cl)cc1)Nc1ccc(Cl)cc1 | 3.65%
30 | O=C(/C=C/c1ccc(Cl)c(Cl)c1)NCCCCCN1CCC(NC(=O)c2ccc(F)cc2F)CC1 | 7.14%
31 | COc1cccc(C23NC(=Nc4nc5ccccc5[nH]4)NC2(c2cccc(OC)c2)NC(=Nc2nc4ccccc4[nH]2)N3)c1 (centres undefined) | 2.86%
32 | CCOc1cc(C)ccc1C1CCN(CCCCNC(=O)c2cccc(-c3ccc(C(F)(F)F)cc3)c2)CC1 | 9.65%
33 | CCN(CCN(C)C)Cc1ccc(-c2ccc(NS(=O)(=O)c3cccc4cccnc34)cc2)cc1 | 6.61%
34 | CN(C)CCOc1cc(NC(=O)Nc2cccc([N+](=O)[O-])c2)ccc1I | 2.99%
35 | Cc1cc(-c2cccc(CNC3CCCC3)c2)ccc1S(=O)(=O)NCCN1CCCC1 | 6.93%
36 | CN1CCC(C(=O)Nc2ccc(-c3ccc(-c4nc5ccccc5[nH]4)s3)cc2)CC1 | 3.48%
37 | CCN1CCC(NCc2ccc(-c3ccc(Cl)cc3)cc2)CC1 | 5.63%
38 | O=C(Nc1ccc2c(c1)CNCC2)c1ccc(-c2ccc(Cl)cc2)cc1 | 7.86%
39 | CCNc1cc(C(=O)N[C@@H](Cc2ccccc2)[C@H](O)CNCCc2ccccc2)cc(N2CCCC2=O)c1 | 0.72%
40 | COc1ccc(N2CCN(CCCNC(=O)c3ccc(NC(=O)c4cc(Cl)cc(Cl)c4)cc3)CC2)c(OC)c1 | 7.08%
41 | Cc1nc(-c2ccc(-c3ccc(C(=O)Nc4ccc(Cl)c(N5CCN(C)CC5)c4)cc3)c(C)c2)no1 | 9.09%
42 | Cc1cccc(CN2CCCC3(CCN(Cc4ccccc4O)C3)C2)c1 (centres undefined) | 4.88%
43 | COc1cc(C)nc2ccc(NC(=O)c3cc([N+](=O)[O-])cc([N+](=O)[O-])c3)cc12 | 1.41%
44 | CC(C)CC(=O)N1CCNC[C@@H]1C(=O)NC1CC1 | 0.72%
45 | CNc1ccc(CNCc2cccc(-c3ccc(-c4nc5cccc(C)c5[nH]4)cc3)c2)cc1 | 12%
46 | COc1ccc(Cl)cc1NC(=O)C(C)Nc1ccc(-c2ccccc2)cc1 (centres undefined) | 0.76%

Row | Compound | IFI
47 | Nc1[nH]c2ccccc2c(=O)c1-c1nc2ccccc2s1 | 1.8%
48 | Cc1cc(OCCCN2CCC(NS(=O)(=O)c3ccc(Cl)c(Cl)c3)C2)c2ccccc2n1 (centres undefined) | 3.39%
49 | CS(=O)(=O)Nc1cccc(-c2cnc3[nH]cc(-c4cc(N)cc(C(=O)O)c4)c3c2)c1 | 6.48%
50 | CCCCCCCn1c2c(c(=N)c3c1CCC3)CCCC2 | 14.8%
51 | c1ccc2[nH]c(-c3ccc(-c4ccc(CN5CCCCC5)cc4)cc3)nc2c1 | 5.63%
52 | CCCCc1ccc2[nH]c(NC(=O)OC)nc2c1 | 2.88%
53 | CCN(CC1CCN(CC2(O)CCOCC2)CC1)c1cc(C)nc(Nc2ccc(Cl)cc2)n1 | 10.3%
54 | CC(C)CN1CCC(COc2ccc3ncn(-c4cc(O[C@H](C)c5ccccc5C(F)(F)F)c(C(N)=O)s4)c3c2)CC1 | 11.1%
55 | Cc1ccc2nc(C)cc(N/N=C/c3ccc([N+](=O)[O-])cc3)c2c1 | 1.47%
56 | O=C(NC1CC1)c1ccc(Cn2c(SCc3cccc(Cl)c3)nc3ccccc3c2=O)cc1 | 0.71%
57 | O=C(C1CC1)N1c2ccccc2CCc2ccccc21 | 3.06%
58 | CC(=O)c1ccc(N2CCN(C(=O)Nc3ccc(Cl)cc3)CC2)cc1 | 0%
59 | COc1ccc2c(c1C1CCN(CCCCNC(=O)c3ccc(NC(=O)c4ccc(Cl)cc4)cc3)CC1)CCCC2 | 4.44%
60 | Cc1cccc2nc(-c3ccc(-c4cccc(NC(=O)Nc5ccccc5)c4)cc3)[nH]c12 | 5%
61 | Cc1ccc(CNC(=O)[C@H](Cc2ccccc2)Nc2cc(C)nc(Nc3ccccc3)n2)cc1 | 12.8%
62 | Cc1n[nH]c2ccc(-c3cc(OC[C@@H](N)Cc4ccccc4)cnc3-c3ccccc3OCc3cccc(F)c3)cc12 | 7.62%
63 | O=S(=O)(c1cccc(F)c1)c1ccc(Nc2ncnc3cc(Br)sc23)cc1Cl | 8.09%
64 | COc1ccc(-c2ccccc2CNC2Cc3ccccc3C2)cc1S(=O)(=O)NCCN1CCCC1 | 2.8%
65 | Cc1cc(C(=O)NC2CCN(Cc3ccccc3)CC2)ccc1-c1nc2ccc(C(F)(F)F)cc2[nH]1 | 0.74%
66 | COCCOc1ccc(C(F)(F)F)cc1NC(=O)Cc1c(F)cccc1Cl | -0%
67 | O=C(NC1CCC1)C1CCN(C(c2ccc(Cl)cc2)c2ccc(Cl)cc2)CC1 | 3.42%
68 | COc1cc(C(=O)N2CCOC(CCN3CCC(c4ccc(Cl)cc4)CC3)(c3ccc(Cl)c(Cl)c3)C2)cc(OC)c1OC (centres undefined) | 9.42%
69 | CCCCNC(=O)c1[nH]c2c(NC(=O)COc3ccccc3)cccc2c1-c1cccc(NC(=O)C(N)CO)c1 (centres undefined) | 1.46%

Row | Compound | IFI
70 | CCC(C)(C)c1ccc(N2C(N)=NC(N)=NC2(C)C)cc1 | 3.68%
71 | NC1(C(=O)O)Cc2ccc(Cl)cc2C1 (centres undefined) | 0%
72 | CCOC(=O)NCC(=O)Nc1cccc(-c2cccc(-c3nc4cc(C(F)(F)F)ccc4[nH]3)c2)c1 | 11.2%
73 | Cc1cccc2nc(-c3cccc(-c4cccc(CNCc5ccc(S(C)(=O)=O)cc5)c4)c3)[nH]c12 | 8.65%
74 | Cc1cccc2nc(-c3ccc(-c4ccc(CN5CCN(C6CCN(C)CC6)CC5)cc4)s3)[nH]c12 | 12.5%
75 | Cc1cc(N2CCCN(C)CC2)nc(Nc2ccc(Br)cc2)n1 | 1.19%
76 | Oc1ccc2[nH]c(-c3cccs3)nc2c1CN1CCC(N2CCCC2)CC1 | 0.85%
77 | COc1cc(Nc2nccc(-c3c(-c4cccc(NC(=O)c5c(F)cccc5F)c4)nn4ccccc34)n2)cc(OC)c1OC | 10.6%
78 | COc1ccc(C(=O)C2CCN(CCCCNC(=O)c3ccc(NC(=O)c4ccc(Cl)cc4)cc3)CC2)c(OC)c1 | 8.33%
79 | Cn1nccc1C(=O)NCCNCc1cccc(-c2ccc(-c3nc4ccccc4[nH]3)s2)c1 | 5%
80 | COCCNCc1cccc(-c2ccc3c(Nc4cc(O)c(Cl)cc4F)ccnc3c2)c1 | 5.26%
81 | S=C(NCCN1CCOCC1)Nc1ccccc1 | -0%
82 | Cc1nc(Nc2cc(Cl)ccc2O)nc(Nc2cc(Cl)ccc2O)c1[N+](=O)[O-] | 0.72%
83 | Cc1cccc2nc(-c3cccc(-c4ccc(NC(=O)Cc5ccc[n+]([O-])c5)cc4)c3)[nH]c12 | 1.77%
84 | CC(C)Oc1ccccc1-c1csc(C(=O)NCC2CCN(Cc3ccc(C(C)(C)C)cc3)C2)c1 (centres undefined) | 16%
85 | CN(C)S(=O)(=O)c1ccc(N2C(=O)C3C(C2=O)C2(c4ccccc4)C(=O)C3(c3ccccc3)C(c3ccccc3)=C2c2ccccc2)cc1 (centres undefined) | 0.72%
86 | CCC(CC)(Cc1ccccc1)NC(=O)[C@H](CC(C)C)Nc1ccc(C#N)c2ccccc12 | 3.92%
87 | CCCC(C)N(Cc1ccc(C(C)(C)C)cc1)C(=O)c1cccc(OC)c1 (centres undefined) | 3.68%
88 | CCS(=O)(=O)c1ccc(-c2cnc3[nH]cc(-c4ccc(N)cc4)c3c2)cc1 | 7.69%
89 | COc1ccc(CNC(=O)Nc2cc3cc(-c4ccc(CN5CCCC5)cc4)ccc3n3c(C)nnc23)cc1 | 13.5%
